{
  "source": "the supplement of paper PMC8728848",
  "assay_in_all_cases": "glycan array binding signal (z-score within array); higher = stronger binding",
  "details_in_all_cases": "glycan notation: IUPAC condensed, linker removed",
  "key": {"[1]": {"molecular_target": "GlcNAc(b1-3)Gal(b1-3)GalNAc", "how_it_was_run": "(§1)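 Arrays were curated from the Consortium for Functional Glycomics database, 3228 in total, and kept only where the protein sequence was available. Binding is expressed as a within-array Z-score. This score was averaged across arrays of the same protein sequence at different concentrations or buffers and across linkers, and negative values can be read as non-binding.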"}, "[2]": {"molecular_target": "GlcNAc(b1-3)Gal(b1-4)Glc", "how_it_was_run": "as §1"}, "[3]": {"molecular_target": "GlcNAc(b1-3)Gal(b1-4)GlcNAc", "how_it_was_run": "as §1"}, "[4]": {"molecular_target": "GlcNAc(b1-3)Gal(b1-4)GlcNAc(b1-3)Gal(b1-4)GlcNAc", "how_it_was_run": "as §1"}, "[5]": {"molecular_target": "GlcNAc(b1-3)GalNAc", "how_it_was_run": "as §1"}, "[6]": {"molecular_target": "GlcNAc(b1-3)Man", "how_it_was_run": "as §1"}, "[7]": {"molecular_target": "GlcNAc(b1-3)[GlcNAc(b1-4)][GlcNAc(b1-6)]GlcNAc", "how_it_was_run": "as §1"}, "[8]": {"molecular_target": "GlcNAc(b1-3)[GlcNAc(b1-6)]Gal(b1-4)GlcNAc", "how_it_was_run": "as §1"}, "[9]": {"molecular_target": "GlcNAc(b1-3)[GlcNAc(b1-6)]GalNAc", "how_it_was_run": "as §1"}, "[10]": {"molecular_target": "GlcNAc(b1-3)[GlcNAc(b1-6)]GlcNAc", "how_it_was_run": "as §1"}, "[11]": {"molecular_target": "GlcNAc(b1-3)[GlcNAc(b1-6)]GlcNAc(b1-4)GlcNAc", "how_it_was_run": "as §1"}, "[12]": {"molecular_target": "GlcNAc(b1-4)Gal(b1-4)GlcNAc", "how_it_was_run": "as §1"}, "[13]": {"molecular_target": "GlcNAc(b1-4)GlcNAc", "how_it_was_run": "as §1"}, "[14]": {"molecular_target": "GlcNAc(b1-4)GlcNAc(b1-4)GlcNAc", "how_it_was_run": "as §1"}, "[15]": {"molecular_target": "GlcNAc(b1-4)GlcNAc(b1-4)GlcNAc(b1-4)GlcNAc(b1-4)GlcNAc", "how_it_was_run": "as §1"}, "[16]": {"molecular_target": "GlcNAc(b1-4)GlcNAc(b1-4)GlcNAc(b1-4)GlcNAc(b1-4)GlcNAc(b1-4)GlcNAc", "how_it_was_run": "as §1"}, "[17]": {"molecular_target": "GlcNAc(b1-4)[GlcNAc(b1-6)]GalNAc", "how_it_was_run": "as §1"}, "[18]": {"molecular_target": "GlcNAc(b1-6)Gal(b1-4)GlcNAc", "how_it_was_run": "as §1"}, "[19]": {"molecular_target": "GlcNAc(b1-6)GalNAc", "how_it_was_run": "as §1"}, "[20]": {"molecular_target": "GlcNAc3Prop(b1-4)GlcNAc", "how_it_was_run": "as §1"}, "[21]": {"molecular_target": "GlcNAc6S(b1-3)Gal(b1-4)GlcNAc", "how_it_was_run": "as §1"}, "[22]": {"molecular_target": "Kdn(a2-3)Gal(b1-3)GalNAc", "how_it_was_run": "as §1"}, "[23]": {"molecular_target": "Kdn(a2-3)Gal(b1-3)GlcNAc", "how_it_was_run": "as §1"}, "[24]": {"molecular_target": "Kdn(a2-3)Gal(b1-4)Glc", "how_it_was_run": "as §1"}, "[25]": {"molecular_target": "Kdn(a2-3)Gal(b1-4)GlcNAc", "how_it_was_run": "as §1"}, "[26]": {"molecular_target": "Kdn(a2-3)Gal(b1-4)[Fuc(a1-3)]GlcNAc", "how_it_was_run": "as §1"}, "[27]": {"molecular_target": "Kdn(a2-6)Gal(b1-4)GlcNAc", "how_it_was_run": "as §1"}, "[28]": {"molecular_target": "Man(a1-2)Man(a1-2)Man(a1-3)Man", "how_it_was_run": "as §1"}, "[29]": {"molecular_target": "Man(a1-2)Man(a1-2)Man(a1-3)[Man(a1-2)Man(a1-3)[Man(a1-2)Man(a1-6)]Man(a1-6)]Man(b1-4)GlcNAc(b1-4)GlcNAc", "how_it_was_run": "as §1"}, "[30]": {"molecular_target": "Man(a1-2)Man(a1-2)Man(a1-3)[Man(a1-2)Man(a1-6)[Man(a1-3)]Man(a1-6)]Man(b1-4)GlcNAc(b1-4)GlcNAc", "how_it_was_run": "as §1"}, "[31]": {"molecular_target": "Man(a1-2)Man(a1-2)Man(a1-6)[Man(a1-3)]Man", "how_it_was_run": "as §1"}, "[32]": {"molecular_target": "Man(a1-2)Man(a1-3)Man", "how_it_was_run": "as §1"}, "[33]": {"molecular_target": "Man(a1-2)Man(a1-3)[Man(a1-2)Man(a1-6)]Man", "how_it_was_run": "as §1"}, "[34]": {"molecular_target": "Man(a1-2)Man(a1-3)[Man(a1-2)Man(a1-6)]Man(a1-6)[Man(a1-2)Man(a1-2)Man(a1-3)]Man", "how_it_was_run": "as §1"}, "[35]": {"molecular_target": "Man(a1-2)Man(a1-3)[Man(a1-2)Man(a1-6)]Man(a1-6)[Man(a1-2)Man(a1-2)Man(a1-3)]Man(b1-4)GlcNAc(b1-4)GlcNAc", "how_it_was_run": "as §1"}, "[36]": {"molecular_target": "Man(a1-2)Man(a1-3)[Man(a1-3)[Man(a1-6)]Man(a1-6)]Man(b1-4)GlcNAc(b1-4)GlcNAc", "how_it_was_run": "as §1"}, "[37]": {"molecular_target": "Man(a1-2)Man(a1-3)[Man(a1-6)]Man(a1-6)[Man(a1-2)Man(a1-3)]Man(b1-4)GlcNAc(b1-4)GlcNAc", "how_it_was_run": "as §1"}, "[38]": {"molecular_target": "Man(a1-2)Man(a1-6)[Man(a1-3)]Man(a1-6)[Man(a1-2)Man(a1-2)Man(a1-3)]Man", "how_it_was_run": "as §1"}},
  "note": "The other results are listed elsewhere or left out.",
  "data": [
    {"binder": "AAL (Aleuria aurantia), P18891 (protein) PTEFLYTSKIAAISWAATGGRQQRVYFQDLNGKIREAQRGGDNPWTGGSSQNVIGEAKLFSPLAAVTWKSAQGIQIRVYCVNKDNILSEFVYDGSKWITGQLGSVGVKVGSNSKLAALQWGGSESAPPNIRVYYQKSNGSGSSIHEYVWSGKWTAGASFGSTVPGTGIGATAIGPGRLRIYYQATDNKIREHCWDSNSWYVGGFSASASAGVSIAAISWGSTPNIRVYWQKGREELYEAAYGGSWNTPGQIKDASRPTPSLPDTFIAANSSGNIDISVFFQASGVSLQQWQWISGKGWSIGAVVPTGTPAGW", "values": [
      {"measurement": "glycan array binding signal (z-score)", "setting": "[1]", "value": -0.515},
      {"measurement": "glycan array binding signal (z-score)", "setting": "[2]", "value": -0.491},
      {"measurement": "glycan array binding signal (z-score)", "setting": "[3]", "value": -0.526},
      {"measurement": "glycan array binding signal (z-score)", "setting": "[4]", "value": -0.545},
      {"measurement": "glycan array binding signal (z-score)", "setting": "[5]", "value": -0.47},
      {"measurement": "glycan array binding signal (z-score)", "setting": "[6]", "value": -0.418},
      {"measurement": "glycan array binding signal (z-score)", "setting": "[7]", "value": -0.468},
      {"measurement": "glycan array binding signal (z-score)", "setting": "[8]", "value": -0.514},
      {"measurement": "glycan array binding signal (z-score)", "setting": "[9]", "value": -0.426},
      {"measurement": "glycan array binding signal (z-score)", "setting": "[10]", "value": -0.532},
      {"measurement": "glycan array binding signal (z-score)", "setting": "[11]", "value": -0.567},
      {"measurement": "glycan array binding signal (z-score)", "setting": "[12]", "value": -0.525},
      {"measurement": "glycan array binding signal (z-score)", "setting": "[13]", "value": -0.432},
      {"measurement": "glycan array binding signal (z-score)", "setting": "[14]", "value": -0.502},
      {"measurement": "glycan array binding signal (z-score)", "setting": "[15]", "value": -0.52},
      {"measurement": "glycan array binding signal (z-score)", "setting": "[16]", "value": -0.518},
      {"measurement": "glycan array binding signal (z-score)", "setting": "[17]", "value": -0.515},
      {"measurement": "glycan array binding signal (z-score)", "setting": "[18]", "value": -0.506},
      {"measurement": "glycan array binding signal (z-score)", "setting": "[19]", "value": -0.474},
      {"measurement": "glycan array binding signal (z-score)", "setting": "[20]", "value": -0.425},
      {"measurement": "glycan array binding signal (z-score)", "setting": "[21]", "value": -0.391},
      {"measurement": "glycan array binding signal (z-score)", "setting": "[22]", "value": -0.425},
      {"measurement": "glycan array binding signal (z-score)", "setting": "[23]", "value": -0.506},
      {"measurement": "glycan array binding signal (z-score)", "setting": "[24]", "value": -0.439},
      {"measurement": "glycan array binding signal (z-score)", "setting": "[25]", "value": -0.513},
      {"measurement": "glycan array binding signal (z-score)", "setting": "[26]", "value": -0.19},
      {"measurement": "glycan array binding signal (z-score)", "setting": "[27]", "value": -0.435},
      {"measurement": "glycan array binding signal (z-score)", "setting": "[28]", "value": -0.508},
      {"measurement": "glycan array binding signal (z-score)", "setting": "[29]", "value": -0.622},
      {"measurement": "glycan array binding signal (z-score)", "setting": "[30]", "value": -0.611},
      {"measurement": "glycan array binding signal (z-score)", "setting": "[31]", "value": -0.514},
      {"measurement": "glycan array binding signal (z-score)", "setting": "[32]", "value": -0.513},
      {"measurement": "glycan array binding signal (z-score)", "setting": "[33]", "value": -0.516},
      {"measurement": "glycan array binding signal (z-score)", "setting": "[34]", "value": -0.425},
      {"measurement": "glycan array binding signal (z-score)", "setting": "[35]", "value": -0.488},
      {"measurement": "glycan array binding signal (z-score)", "setting": "[36]", "value": -0.62},
      {"measurement": "glycan array binding signal (z-score)", "setting": "[37]", "value": -0.518},
      {"measurement": "glycan array binding signal (z-score)", "setting": "[38]", "value": -0.436}
    ]}
  ]
}
